The record followed here is the supplement of paper PMC11417369.

± gives the standard deviation of the averaged measurements. This is one part of the list.

For the assay, the system named is PfAP2-EXP AP2 domain (GST-tagged). As to the kind of experiment: gcPBM binding intensity (ln(normalized median fluorescence intensity)); higher = stronger DNA binding. Put shortly: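 Plasmodium falciparum DNA-binding domains carrying a GST tag were expressed in E. coli and applied for 1 h, at about 25 μg on average, to an Agilent 4 × 180k array. The array held primer-extended double-stranded 36-bp intergenic genomic probes together with negative controls, and binding took place in 1× PBS with 1% milk, 0.2 mg/ml BSA, 0.5% salmon testes DNA and 0.03% Triton X-100. An Alexa488 anti-GST antibody detected bound protein, and the array was scanned at 488 nm. Binding intensity is taken as the highest Masliner-normalised natural-log median intensity across replicate spots of either probe orientation.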
For “TCTTAAATTTCTTTATGTACATAATTAATATATTTA [XGTACX_site4456]”, the “gcPBM binding intensity (ln)” value came out at 8.41 ± 0.2.

For “ATGATAGTATGTATGAGTACGAAAAAAAAAAATTAA [XGTACX_site32]”, the “gcPBM binding intensity (ln)” value amounted to 8.7 ± 0.48. Next, “AAATGCAAATGATGATGTACATACAAAAATTAAATT [XGTACX_site5323]”: 8.91 ± 0.45; “ATATATATATATATTGTACACACATTTATGCATATA [CACACA_site9055]”: 10 ± 0.2. The value for “TGTGGGAATAACCACACACACACACCCATATATATA [CACACA_site5876]” was 8.71 ± 0.44; that for “ATATATATATATATATGTACATATCACTTTAAATAT [XGTACX_site3859]” was 10.1 ± 0.38. The value for “TTTTCTTAAAAAATCAAACACACATATATATATACA [CACACA_site2297]” was 8.55 ± 0.51.

Turning to “TACTATAAGATATATACACACAAGAAATACAAAACG [CACACA_site6764]”, the “gcPBM binding intensity (ln)” value turned out to be 8.97 ± 0.59. As for “ATACACATTCGAAATAACAAAAAAATACATACACAT [GTGCAC_negctrl_site628]”, the “gcPBM binding intensity (ln)” value came out at 8.78 ± 0.58.

“GAATATGAATATTTGCGTACTTATATAACTGTTCTA [XGTACX_site883]”: the “gcPBM binding intensity (ln)” value turned out to be 8.72 ± 0.33. Regarding “AAAAAAAATAATAATACACACAATATGATATGTACA [CACACA_site850]”, the “gcPBM binding intensity (ln)” value was 8.35 ± 0.45. For the sequence “ATGATTATTTTAAAAAGTACTAATTATTATTTTTTT [XGTACX_site7242]”, the “gcPBM binding intensity (ln)” value was 8.28 ± 0.34. “TGCTTAATTTACGTGGGTACATACACCTCATATATT [XGTACX_site3093]”: the “gcPBM binding intensity (ln)” value came out at 8.89 ± 0.36.

In the case of “TTTTTATACAATTAGACACACACAAAAAGTATATAT [CACACA_site8272]”, the “gcPBM binding intensity (ln)” value worked out at 8.82 ± 0.45. Regarding “ATATATGTATATTTTTGTACGCATAAATATATTTTT [XGTACX_site827]”, the “gcPBM binding intensity (ln)” value stood at 8.63 ± 0.4. The value for “TTAATACATATATATATATTATATATATATATATAT [TGCATGCA_negctrl_site177]” was 9.6 ± 0.51; that for “TATTTTTCCATAAAAATTTATATAGAAACAAATAAT [GTGCAC_negctrl_site103]” was 8.26 ± 0.33. In the case of “ATTATTTTAATTTTAATTTTTTTTTTTTTTTGTTTT [CACACA_negctrl_site1063]”, the “gcPBM binding intensity (ln)” value was found to be 8.14 ± 0.45.

As for “CCCTTTTATTAAAATTCACACACATAAATTTTTATA [CACACA_site8611]”, the “gcPBM binding intensity (ln)” value was 8.53 ± 0.39. Regarding “TTACCGTAAAAATTTTGTACATAAAATAATATATAA [XGTACX_site532]”, the “gcPBM binding intensity (ln)” value amounted to 8.66 ± 0.37.

As for “GTATGTGTGTCAAGTCGTACTTACCTTTAAATTTTT [XGTACX_site2507]”, the “gcPBM binding intensity (ln)” value stood at 8.91 ± 0.43.

On to “GATATAAAATATTGGTGTACTTTTTTTTTTTTTTTT [XGTACX_site7174]”, for which the “gcPBM binding intensity (ln)” value amounted to 8.485 ± 0.021.

For “CACATACATATATATACACACAAATATATATACACA [CACACA_site8164]”, the “gcPBM binding intensity (ln)” value was determined as 8.48 ± 0.39. As for “GAGTGAGCTAATAAAAGTACGTAATAAACAAACGCA [XGTACX_site131]”, the “gcPBM binding intensity (ln)” value turned out to be 8.93 ± 0.47.

“ACCATGAAAATATTATGTACATATGTATTATATATA [XGTACX_site408]”: the “gcPBM binding intensity (ln)” value was 8.56 ± 0.32. The value for “ATAGCTGTATTTAATACACACAAAACTTTCATTCCA [CACACA_site5868]” was 8.49 ± 0.42.

With “TTTTTTTGTTTTGTTTTTTTTTTTTTTTTTTTTTTG [CACACA_negctrl_site570]”, the “gcPBM binding intensity (ln)” value stood at 8.09 ± 0.51. In the case of “TTAAAAAAAAAACACACACACATACACATATATATA [CACACA_site3299]”, the “gcPBM binding intensity (ln)” value stood at 8.77 ± 0.33. “TTTTTATATTTTTGCACACATTCTTTACTCTTCAAA [CACACA_site2210]”: the “gcPBM binding intensity (ln)” value came to 9.19 ± 0.39.

Consider “TATATATATGGACACACACACATATAAATAAATAAA [CACACA_site4406]”, for which the “gcPBM binding intensity (ln)” value is 8.74 ± 0.36. As to “TGTGAAGTACCGAATGTGCACTGTGTGTGTTCTTTT [GTGCAC_site9613]”, the “gcPBM binding intensity (ln)” value was found to be 8.84 ± 0.18.

Consider “ATAATTAATAAATAATGTACATATATATTATATTTT [XGTACX_site8546]”, for which the “gcPBM binding intensity (ln)” value turned out to be 8.23 ± 0.21. Consider “TTTTTTTTTTTTTTTTTTTCTATTTTACTGTTTCGT [CACACA_negctrl_site850]”, for which the “gcPBM binding intensity (ln)” value was 8.04 ± 0.4. Consider “ATATAATAGTTATATTGTACATAAATTATACACCTT [XGTACX_site628]”, for which the “gcPBM binding intensity (ln)” value was determined as 8.47 ± 0.34. In the case of “GACAAAAAATTAAAATAAAATAATAATATAATAAAA [GTGCAC_negctrl_site234]”, the “gcPBM binding intensity (ln)” value was 8.35 ± 0.38. Regarding “ATACGCACACATATATGTACATATTGTATATATATA [XGTACX_site3962]”, the “gcPBM binding intensity (ln)” value came out at 9.065 ± 0.007. As to “TATAAACACCCATATAAACACACATATAAACCAACA [CACACA_site8790]”, the “gcPBM binding intensity (ln)” value turned out to be 8.73 ± 0.43.

Consider “ACAATTTACACTTAAACACACAAAAAAAAATTATAT [CACACA_site2065]”, for which the “gcPBM binding intensity (ln)” value was 8.5 ± 0.64. As to “ACATATATATTCATATGTACATATACATACATACAT [XGTACX_site4563]”, the “gcPBM binding intensity (ln)” value was determined as 9.23 ± 0.27.

Turning to “TGTTTTATTTTATTAGTGCATTTTTATTTATAATAG [GTGCAC_site9453]”, the “gcPBM binding intensity (ln)” value turned out to be 8.82 ± 0.26. On to “AAGGTAGAAATATGTTGTACGGTTTGGAGGAAGCAA [XGTACX_site1105]”, for which the “gcPBM binding intensity (ln)” value was 8.95 ± 0.38. Take “GCATCGATCAAACATACACACATGGTTAATAAAAAT [CACACA_site8651]”: the “gcPBM binding intensity (ln)” value worked out at 8.62 ± 0.59. For the sequence “GTTAAAATTGGGGACGCATGTTCCTTTCCTTTTTTT [TGCATGCA_site1002]”, the “gcPBM binding intensity (ln)” value is 8.55 ± 0.31. The value for “AATATATGTATATATTTTTTTTTTTCCCTTACAAAT [GTGCAC_negctrl_site428]” was 8.12 ± 0.55.

Regarding “TTATAAATGTAACGATGTACTTTTAAAAGTTTCCTT [XGTACX_site109]”, the “gcPBM binding intensity (ln)” value is 8.36 ± 0.38.

As to “GGAATGGTACATGATACACACACGCACATATATATA [CACACA_site5825]”, the “gcPBM binding intensity (ln)” value is 8.85 ± 0.47. The value for “TATATTAAACAATATACACACATTAATGTATACATA [CACACA_site2755]” was 8.47 ± 0.42. The value for “AAAAAAAAAAAAAAAACACACAGAACAATATATAAA [CACACA_site4698]” was 8.73 ± 0.38. Consider “TTTTTTATAAAATTTTTTTTTTAAAATATTAAAACT [XGTACX_negctrl_site240]”, for which the “gcPBM binding intensity (ln)” value came out at 7.89 ± 0.47.

On to “AAGCTATATATAGGCAGTACTTTGTAAGTGTAGATA [XGTACX_site8365]”, for which the “gcPBM binding intensity (ln)” value was determined as 8.83 ± 0.37. As for “ATATGTCACTTGTATACACACATATAGATTTCAATC [CACACA_site7519]”, the “gcPBM binding intensity (ln)” value is 9.19 ± 0.66.

As to “TTTCTAATTCTTAGTGGTACACAGTTCTGCTGATAT [XGTACX_site2391]”, the “gcPBM binding intensity (ln)” value was 8.34 ± 0.42. For “TATATGCATATACATACACACATAACACATACGTTT [CACACA_site3832]”, the “gcPBM binding intensity (ln)” value is 8.71 ± 0.43. On to “TATTTGTTGTGAGTCACACATATATATATATATATA [CACACA_site4240]”, for which the “gcPBM binding intensity (ln)” value was 10.3 ± 0.42. Regarding “TTTTCATAAAATCATTGTACATTTATCGTATATTAA [XGTACX_site3855]”, the “gcPBM binding intensity (ln)” value was found to be 8.46 ± 0.4.

Consider “ATATTGTAAGTAAACACACACACATATATATGTATA [CACACA_site8124]”, for which the “gcPBM binding intensity (ln)” value is 8.61 ± 0.49.
